# Laboratory results reported in PubChem BioAssay AID686978 (National Center for Advancing Translational Sciences (NCATS), 2013).
# About 64,000 (15%) of roughly 420,000 compounds were called active. Inconclusive results, whose numbers are uncertain, are shown with a selection of clear calls. Calls come from the whole dose curve; as a rule, active = well fitted inhibition curve with a large enough effect; inconclusive = small, poorly fitted or top-dose-only effect; inactive = flat fitted curve, though single readings scatter. No potency is given beside an inconclusive call; the fits are too rough.
# Assay: qHTS for Inhibitors of human tyrosyl-DNA phosphodiesterase 1 (TDP1): qHTS in cells in absence of CPT; note: nearly all actives have a fitted effect of over 55% in size
# Conditions: DT40 Tdp1-/- hTDP1 cells, no CPT, ATP luminescence, 48 h
# How it was run: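 DT40 Tdp1-/-;hTDP1 cells, no CPT (DMSO vehicle only), 400 cells/well; compounds pin-transferred; ≥48 hr, 37 °C; CellTiter-Glo 30 min RT dark, luminescence read.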
# [1] = activity change, negative = growth inhibition: at 46.2 µM (top of the series)
# % is set by controls: 0 for no effect and ±100 for the full control effect; potency is the fitted concentration of half-maximal effect; tags give direction and shape of the fitted curve.
structure (smiles),measurement,setting,value
COCCCNc1nc(CC(C)C)nc2c1nnn2Cc1ccccc1,Potency,[1],"inconclusive [inhibitor, partial curve, poor fit]"
Cc1ccccc1N1C(=O)C(Cl)=C(N2CCOCC2)C1=O,Potency,[1],inactive
CN(C)CCCN(C(=O)c1cc(-c2cccs2)nc2ccccc12)c1nc2ccc(F)cc2s1,Potency,[1],active: 13 µM
O=C(NN=C1CCCC1)c1ccccc1[N+](=O)[O-],Potency,[1],inactive
Cc1ccc(S(=O)(=O)N(CC(=O)Nc2ccccc2C(=O)O)c2ccccc2C)cc1,Potency,[1],"inconclusive [inhibitor, single point]"
O=C(c1ccc(Cl)c(S(=O)(=O)N2CCCCC2)c1)N1CCCC(C(F)(F)F)C1 (stereo not drawn),Potency,[1],"inconclusive [inhibitor, single point]"
O=C(N/N=C\c1cc2c(cc1Cl)OCO2)c1cccnc1,Potency,[1],inactive
Cc1[nH]c2ccc(C(=O)Nc3ccncc3)cc2c1C,Potency,[1],active: 11.6 µM
CSc1ncc(Cl)c(C(=O)N(C)c2ccccc2)n1,Potency,[1],"inconclusive [inhibitor, single point]"
CC1CC(C)(C)N(C(=O)CN2C(=O)c3ccccc3C2=O)c2ccccc21 (stereo not drawn),Potency,[1],"inconclusive [inhibitor, single point]"
NNC(=O)c1csc(-c2ccc(C(F)(F)F)cc2Cl)n1,Potency,[1],inactive
Cc1ccc(Cc2c(-c3ccc(C)cc3)nc3ccc(Br)cn23)cc1,Potency,[1],active: 23.1 µM
CCOCCCNC(=O)c1cn(CC(C)C)c(=O)c2c1c1ccccc1n2C,"activity change, negative = growth inhibition",[1],inconclusive: -30.9% [inhibitor]
same,"activity change, negative = growth inhibition",at 46.2 µM (top of the series),inactive: -21.2%
CC(=O)Nc1ccc2c(c1)-c1ccc(F)cc1C2=O,Potency,[1],"inconclusive [inhibitor, single point]"
COc1cc(S(=O)(=O)NC2CCCC2)ccc1Cl,"activity change, negative = growth inhibition",[1],inconclusive: -36.7% [inhibitor]
O=C(NCCCN1CCOCC1)c1ccc2c(=O)n(Cc3ccccc3)c(=S)[nH]c2c1,Potency,[1],"inconclusive [inhibitor, single point]"
COc1cc(/C=C\c2ccc(OC)cc2OC)cc(OC)c1,Potency,[1],"inconclusive [inhibitor, full curve, poor fit]"
CCc1cccc(CC)c1NC(=O)COC(=O)CCc1cc(OC)c(OC)c(OC)c1,Potency,[1],inactive
CN(C)c1ccc(/C=C/c2ccnc3ccc([N+](=O)[O-])cc23)cc1,Potency,[1],"inconclusive [inhibitor, partial curve]"
CCOC(=O)CSC1=Nc2ccccc2C2=NC(CC(=O)NCc3cccs3)C(=O)N12 (stereo not drawn),Potency,[1],inactive
O=C(CN1CCc2cc3c(cc2C1)OCCCO3)Nc1cccc([N+](=O)[O-])c1,Potency,[1],"inconclusive [inhibitor, single point]"
O=C(CCCN1C(=O)/C(=C/c2ccccc2Cl)SC1=S)Nc1ccccn1,Potency,[1],"inconclusive [inhibitor, single point]"
C=C(C)c1cccc(C(C)(C)NC(=O)N2CCN(c3ccccc3OC)CC2)c1,Potency,[1],"inconclusive [inhibitor, single point]"
COc1cccc(OC)c1OCCN1CCC(C(=O)NC(c2ccc3c(c2)OCO3)c2ccccn2)CC1 (stereo not drawn),Potency,[1],inactive
Cc1cccn2c(=O)c3cc(C#N)c(=O)n(-c4nnc(SCc5ccc(F)cc5)s4)c3nc12,Potency,[1],"inconclusive [inhibitor, full curve]"
N#C/C(=C\c1ccccc1)C(=O)Nc1cc(S(=O)(=O)N2CCOCC2)ccc1N1CCCC1,Potency,[1],"inconclusive [inhibitor, single point]"
COc1ccc2c(c1)C(=NO)c1cc(OC)ccc1-2,Potency,[1],"inconclusive [inhibitor, partial curve, poor fit]"
CN(CC(=O)Nc1c(Cl)cccc1Cl)C(=O)c1cc(S(=O)(=O)N(C)C)ccc1N1CCCC1,Potency,[1],inactive
O=C(COc1ccc(C(=O)NCC2CCCO2)cc1)Nc1cccc(C(F)(F)F)c1 (stereo not drawn),Potency,[1],"inconclusive [inhibitor, single point]"
O=C(CSc1cccc2cccnc12)OCC(=O)c1ccccc1,Potency,[1],"inconclusive [inhibitor, single point]"
COc1ccc(OC)c(C(C)NC(=S)NC2CCCCC2)c1 (stereo not drawn),Potency,[1],"inconclusive [inhibitor, single point]"
CCn1c(CCNC(=O)c2cccs2)n[nH]c1=S,Potency,[1],inactive
COCCNC(=O)C1(C)CCCN(Cc2ccc(-c3ccccn3)cc2)C1 (stereo not drawn),Potency,[1],"inconclusive [inhibitor, single point]"
Cc1ccc(C)n1-c1nccc(-c2ccco2)n1,"activity change, negative = growth inhibition",[1],inconclusive: -31% [inhibitor]
Cc1cc2nccc(-c3ccco3)n2n1,Potency,[1],"inconclusive [inhibitor, partial curve]"
COCCNC(=O)C1(C)Cc2c(-c3cccc(C(N)=O)c3)ccnc2O1 (stereo not drawn),Potency,[1],inactive
CCOc1cc(CNCCCN2CCOCC2)cc(Br)c1OCC(=O)Nc1cccc(C(F)(F)F)c1,Potency,[1],active: 4.11 µM
COC(=O)[C@@H]1CCCN1Cc1c(C(=O)N2CCOCC2)nc2c(C)cccn12,Potency,[1],inactive
Cc1cc(C)c(NC(=O)CSc2nc(=O)n(Cc3cccnc3)c3c2CCC3)c(C)c1,Potency,[1],inactive
O=C1NN(c2ccc(F)cc2)C(=O)/C1=C/c1cccs1,Potency,[1],inactive
COc1cccc(NC(=O)c2cc(Cl)nnc2Cl)c1,Potency,[1],active: 8.2 µM
O=C(CN1CCN(c2ccccc2F)CC1)N1CCc2ccccc21,Potency,[1],"inconclusive [inhibitor, single point]"
Cc1ccc(NC(=O)CSc2nc3ccc(Nc4nc(N5CCOCC5)nc(N5CCOCC5)n4)cc3s2)cc1,Potency,[1],active: 18.4 µM
COc1ccc2[nH]c3c(c2c1)CCN1C(=O)C(CC(=O)NCC24CC5CC(CC(C5)C2)C4)C[C@H](C(=O)N(C(C)C)C(C)C)[C@@]31C (stereo partly drawn),Potency,[1],"inconclusive [inhibitor, single point]"
O=C(Cc1nnc(NC(=O)Nc2ccccc2)s1)Nc1ccccc1,Potency,[1],inactive
COC(=O)Cn1c(O)c(N=NC(=O)CNC(=O)c2ccncc2)c2ccccc21,Potency,[1],inactive
CC(=O)Nc1cccc(Nc2cnccn2)c1,Potency,[1],inactive
O=C(CCS(=O)(=O)Cc1ccccc1F)N1CCc2ccccc2C1,Potency,[1],active: 16.4 µM
OCC1CCCN(c2nc(CN3CCCCC3)nc3scc(-c4ccccc4)c23)C1 (stereo not drawn),Potency,[1],"inconclusive [inhibitor, single point]"
O=C(CSc1ncc2c(n1)-c1cc(Cl)ccc1N(Cc1ccccc1)S2(=O)=O)NCCc1ccccc1,Potency,[1],"inconclusive [inhibitor, single point]"
CN(CC(=O)NCCc1ccc(F)cc1)Cc1cccc(Cl)c1,Potency,[1],"inconclusive [inhibitor, partial curve]"
COc1ccc(S(=O)(=O)N(C)C[C@@H]2OCCCC[C@H](C)Oc3ccc(NC(=O)Nc4ccc(C(F)(F)F)cc4)cc3C(=O)N([C@H](C)CO)C[C@H]2C)cc1,Potency,[1],active: 7.31 µM
COc1ccc2[nH]c3c4c(ccc3c2c1)C(=O)C=CC4=O,Potency,[1],active: 0.259 µM
COc1cc(OC)nc(Oc2cccc(Cl)c2C)n1,Potency,[1],inactive
CC(=O)[C@@]1(O)[C@H](O)CC2C3CCC4CC(O)CC[C@]4(C)C3CC[C@@]21C (stereo partly drawn),"activity change, negative = growth inhibition",[1],inactive: -1.56% [at 9.04 µM]
CCCCn1c(NCc2ccc3c(c2)OCO3)nc2ccccc21,Potency,[1],active: 25.9 µM
COc1ccc(C(=O)Nc2ccnn2C2CCN(CCC(C)c3ccc(C)o3)CC2)cc1 (stereo not drawn),Potency,[1],"inconclusive [inhibitor, partial curve, poor fit]"
CC1C(O)=C(c2nc3ccccc3[nH]2)C(=N)N1c1ccccc1 (stereo not drawn),Potency,[1],active: 20.6 µM
Oc1ccc(N=Nc2n[nH]c(-c3ccc(Br)cc3)n2)cc1,Potency,[1],"inconclusive [inhibitor, single point]"
NC(=O)C1(N2CCCC2)CCN(Cc2ccccc2)CC1,Potency,[1],inactive
COc1ccc(/C=C/C(=O)Oc2cc(C)[nH]c(=O)c2[N+](=O)[O-])cc1OC,Potency,[1],inactive
COc1ccc(NC(=O)c2cccn2-c2nnc(N3CCCCC3)s2)c(OC)c1,Potency,[1],"inconclusive [inhibitor, single point]"
COc1ccc(N(Cc2cc3ccc(C)cc3[nH]c2=O)S(=O)(=O)c2ccccc2)cc1,Potency,[1],"inconclusive [inhibitor, single point]"
CN(Cc1ccccc1)CC(O)CN(C)Cc1ccccc1,Potency,[1],inactive
Cc1c(C(=O)NCCSCc2ccc(Cl)cc2Cl)cccc1[N+](=O)[O-],Potency,[1],"inconclusive [inhibitor, single point]"
CCOc1ccccc1NC(=O)CSc1ccc(-c2ccco2)nn1,Potency,[1],"inconclusive [inhibitor, single point]"
Cc1cc2nnc(SC3CCCCN(C(=O)c4ccc(F)cc4)C3=O)n2c2ccccc12 (stereo not drawn),Potency,[1],"inconclusive [inhibitor, partial curve]"
O=C(Nc1ccc(OCC(F)(F)C(F)F)c(C(F)(F)F)c1)c1ccccc1O,Potency,[1],active: 18.4 µM
COc1ccc(C2CC(=O)C3=C(C2)Nc2ccccc2NC3c2coc3ccccc3c2=O)cc1OC (stereo not drawn),Potency,[1],active: 25.9 µM
O=C(CSCc1nc2ccccc2[nH]1)N1CCN(c2cccc(Cl)c2)CC1,Potency,[1],"inconclusive [inhibitor, single point]"
CN1CCC(N(C)S(=O)(=O)c2ccc(NC(=O)COc3ccc(Cl)cc3)cc2)CC1,Potency,[1],"inconclusive [inhibitor, single point]"
COc1ccccc1CNC(=O)c1cc(-c2ccncc2)nc2c(Cl)cccc12,Potency,[1],"inconclusive [inhibitor, single point]"
